Test results reported in the supplement of paper PMC3334620.
Whole data set: some 33,000 sequences, median “E-score (-0.5 to 0.5)” near -0.017, cut for the highest 2% near 0.3. The list shows a part of the results.

Target: T1, Sut1 (UniProt P53032)
T1 sequence: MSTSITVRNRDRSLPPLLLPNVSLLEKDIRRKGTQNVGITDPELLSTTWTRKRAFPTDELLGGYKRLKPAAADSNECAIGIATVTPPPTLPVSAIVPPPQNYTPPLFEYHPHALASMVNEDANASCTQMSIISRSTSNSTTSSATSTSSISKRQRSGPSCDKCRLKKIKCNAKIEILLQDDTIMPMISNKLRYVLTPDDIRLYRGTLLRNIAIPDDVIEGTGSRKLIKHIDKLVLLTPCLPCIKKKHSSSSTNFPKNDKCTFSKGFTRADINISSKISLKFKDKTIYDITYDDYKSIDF
Experiment: PBM E-score (8-mer binding enrichment) (E-score (-0.5 to 0.5)); higher = stronger / more preferred TF binding; most listed sequences are background and not binding sites
Conditions: protein concentration: 200 nM; construct: GST-full length
Method in brief: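 E-scores (a modified Wilcoxon-Mann-Whitney statistic) were assigned by the Universal PBM Analysis Suite to every ungapped eight-base word pooled with its reverse complement. The input came from universal all-10-mer Agilent arrays made double-stranded by primer extension and probed with GST-tagged yeast transcription factors at about 100-200 nM. Fluorescent anti-GST detected bound protein, and masliner normalised the scans.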

Sequence	PBM E-score
TAAACGCA	0.0594
CTCTTTAA	0.176
ATAACTCA	0.117
GAACGTAC	-0.0884
TCAATTAA	0.231
GGGCATAA	-0.0121
ACTCTTGA	-0.111
ACCACATA	-0.0101
GTGATCTA	0.163
CATACGTA	0.16
ACGCATCG	-0.036
AGGCTGAT	-0.228
GCTCCCCC	-0.444
CCAAAAAA	0.247
GAACTCTA	-0.022
CGTTGGGC	-0.333
GGAGCGAC	0.0205
CATCGTTC	-0.0484
AACGTCAG	-0.202
AGCCGCAC	-0.171
AACGCTGT	-0.0573
ATTAGGGC	-0.0952
AATATCCC	-0.0894
ATTGAACC	0.0875
CAAATGCG	0.13

Sequence	PBM E-score
ATTCCTTG	-0.175
TCCTACCA	-0.163
GCAGTTAA	-0.00443
GAAGGAAA	-0.0845
GGGTCAAC	-0.0211
TGAGGGCA	-0.236
ACATCTAC	0.216
GGGTTCGA	-0.0735
CCCTCTCG	-0.242
CCAGGCAC	-0.197
CTCATTGC	-0.0785
GAATTTCA	0.25
AGCCTCCA	-0.24
ATTAGATA	0.175
TTCGGAAA	0.252
CAACCAAC	-0.158
TAGCGTAA	0.0517
AGGACGGG	-0.232
CCTGACGA	-0.245
CGCCCTTC	-0.0609
CTAGCCTA	0.0691
GGTACAAC	0.107
AGTATTGC	-0.0539
CTCTGCGC	-0.163
CCCGCTAG	-0.222

Sequence	PBM E-score
CAGAGTTC	0.0113
GCTAAAAC	0.0184
CGCCTCAC	0.0325
GGTGTCAA	-0.195
GAACTTCA	0.0556
GAGATAGC	0.0275
AGTGCCGA	0.00087
CGGTATTC	0.235
CCAGATAG	-0.192
AAAGTTAT	0.281
GGTATGAA	0.114
AAGATTGC	0.0822
CTGCGTGA	0.0757
GGGTTGCA	-0.0498
ATTATATC	0.262
CTCGAGTC	-0.144
CATGCACC	-0.116
GAGCCCAA	-0.0712
ATGGAGAC	-0.0343
ATCTCGTA	0.042
GCTAGCTA	-0.158
CGAGGTGC	0.0682
AACGGAGT	0.478
ACGTAAGC	-0.19
TACTAGAA	0.164

Sequence	PBM E-score
GGTTAGAA	-0.104
CAAGGGTC	-0.0764
GGCTCTAA	-0.0767
AGCAAATA	0.2
CAGCCATG	-0.265
CCCGCTTA	-0.182
GCAGCTCC	0.00727
AGGTCAAG	-0.0505
CGTAACGC	-0.0588
CGAAATAC	0.215
GTTGCGTA	0.0944
AAGCTATA	0.0434
GGTGAAAC	0.0555
AGTAAGAC	0.0151
ACATGACC	-0.173
GTACGAGA	0.0281
TCAGATCA	-0.105
CTTTTATC	0.26
GAAACTCC	0.345
CTTGTCCC	-0.0919
ATTTCGAA	0.313
CAGGCGAC	-0.165
AATGCTAA	0.0726
GGCGATTA	-0.0594
AGCAAAGG	0.0533

Sequence	PBM E-score
AGTGTGGG	0.0135
GGTTAAGA	0.0619
ACGCAGAG	-0.0944
GCCGTCGC	-0.177
CTATCTGA	-0.175
CAGGTCAC	-0.398
CGATTTCC	0.193
ACGCTTTA	-0.14
TAATCTGA	0.126
CCCACCGA	-0.0673
GGCAGATA	-0.119
GGACAGGA	-0.0585
ACGCTAAG	-0.159
ATCACGAT	-0.0864
GTAGTACA	-0.131
GTGTGAAA	0.122
ATCGAAGG	0.115
AGTAACTC	0.115
GTCCCACA	-0.153
ATGTGCTA	0.112
AACTTGAG	-0.0454
CGACCATC	-0.0758
CATCCACA	-0.0595
ACCCCAAT	-0.186
AATTCCGG	0.337

Sequence	PBM E-score
AGTCAGTC	-0.159
GAGCTAAC	0.14
ACTCAACC	0.0622
GCCGGCCA	0.102
CCCATCCA	-0.0982
CGATGCCG	0.0208
CGAGCGGC	0.0427
CAAAGCAA	0.053
GTGAGACA	-0.0481
ATCCTATC	0.0863
GCCAAACC	0.0193
AGTCCTTC	-0.18
ATAGGAAA	0.174
GCTCCTCA	-0.0893
ATAATTTC	0.242
AGTCAGTA	0.0721
TATACTCA	0.136
CCGAAGAA	0.233
ACGAACCC	-0.0389
AATCACGA	-0.13
CAACAGTC	0.0186
CGGTTTCC	0.0236
CTCGTATC	0.145
AGGTACAT	-0.13
CCCTAGGA	-0.136

Sequence	PBM E-score
TCGGACAA	0.367
ATGGTCCA	-0.2
GACATCGC	-0.0981
ATAAGGTG	0.0674
CGTGCATA	0.0332
TTAGATAA	0.0583
CCCCATCC	-0.17
CACAAAAC	0.156
GAATTATC	0.0676
CTGTCTGA	-0.082
ATGTCCGC	0.282
TCTGTCAA	0.0411
TGAGCAAA	0.0483
TCGATCAA	-0.00575
AGAACGCA	0.0182
AGTGCTAC	-0.187
CAATAACA	0.0715
CCAAGGAC	-0.156
CAAGCTGC	-0.0921
AGAATTGC	-0.0537
ACAGACAC	-0.109
GCTCATCA	0.0461
CCTACATC	0.118
GCCATCCC	-0.093
CGTGCTTA	0.015

Sequence	PBM E-score
ACTATTCT	0.0103
CCGGCGTC	0.0977
ACCGCATA	0.136
AGTTGACA	0.135
CAATATAC	0.144
CTCGCGTC	-0.0648
ACACCGAT	0.0445
GCGACTCA	-0.112
GAAAATTA	0.238
GGAACAAA	0.266
CAGGCTCG	-0.102
CTAACTAC	0.00799
GTCCCAAA	-0.0949
TCACGTGA	0.0117
GTAGGACA	-0.0253
CCGACGGA	0.225
CATTTGAC	0.078
ACGGCAAT	0.127
CTTGAGCA	-0.21
ACAACGGG	0.0387
GCTTACTA	0.0513
AGAATCAC	-0.0266
CCACGTCG	-0.0653
ACTCACCG	-0.0689
CCAGGCTA	-0.386

Sequence	PBM E-score
CGACTAGA	0.0341
CTCGTGCA	-0.071
CGGAATCC	0.094
CGCGATAC	-0.127
AATCCATA	0.108
CGTAGGAC	-0.151
CCTTTCTA	-0.00952
GACACAAA	0.0952
ACCAGGAC	-0.00934
ACAAGAAA	0.218
AGAATGAG	-0.00389
AGGCGAGA	-0.259
ACAGATCG	-0.0379
AAGCCTAG	-0.183
CTGCACGC	-0.343
ATCTGTTG	-0.0365
TGAGACCA	-0.207
CACGTTAA	-0.0328
GCGCTATA	-0.094
AGCTGCGG	-0.232
AGTCCCGG	0.1
CTTAACAA	0.145
GAAACCCA	0.11
AAAGCTCA	-0.0115
AGACAATC	0.09

Sequence	PBM E-score
ATGGGCAC	-0.0249
AGGATGAA	-0.126
GAGCGGGC	-0.286
ACAATGGG	0.117
GCGCTCAC	-0.107
CGTCTGTA	-0.0311
AGTATAAA	0.302
CCCGACAA	0.173
TACCGGAA	0.298
CTCGGTAC	-0.0712
CCCGCGTA	-0.112
CTAGGACC	-0.157
AGTAGAGA	-0.0294
AGTGGAGA	0.00138
CTCACGAC	-0.29
AAGGCTGG	-0.146
CCCAAAAG	-0.0557
ATAGGGGG	-0.303
ATAGTGGC	-0.189
TACGCGCA	0.0105
AATACTCA	0.189
ACGACAGT	0.0864
GTCCCAGA	-0.324
AGTCTGGC	-0.306
CGAACATC	0.139

Sequence	PBM E-score
CCTCAGAG	-0.247
CCCGTGCA	-0.167
AGGTGTGC	-0.224
ACATTATG	0.184
AGCCTTAG	-0.00896
GATTGAAA	0.303
CTAGTATC	-0.0607
ACATGTTA	0.193
CATAAGCA	0.00608
TAACACCA	0.0761
AACATACT	0.22
CGACGCTA	-0.089
CTATATGC	0.198
CCGATAAG	0.111
GATCTAGC	-0.0743
AGCCGAGG	-0.0581
AATTTGAA	0.247
TCTCGAGA	0.108
AGATCAAT	0.0727
AGGTCTAT	-0.0267
GCTTATAA	0.186
ACCGCAGA	-0.164
CGTTGACC	-0.224
CAGCTGGC	-0.093
CCAATGGA	-0.108

Sequence	PBM E-score
GAAGCATC	-0.0851
AGTCAGAT	0.0409
AACCAGCT	-0.0518
CTGGAACC	-0.168
ACCCCAGG	-0.372
CTTAACGC	0.00079
AGGCTATG	-0.101
CCAGGCGC	-0.211
GAGTTAAC	0.104
CGTGATTA	0.0962
ACGACGAC	-0.125
CAGTGCGC	-0.321
ATGTGTAA	0.139
GCTCGTCC	-0.109
GAACATCA	0.00284
GCCCTATA	-0.213
CTTGACAC	-0.0991
ATCCGGCC	0.135
ACGTGCGC	-0.0634
TAAAAAGA	0.174
TTCCCAAA	0.135
CAACGCCA	-0.0828
CATGCTGA	-0.116
GTTCTGTA	0.157
CATACTGG	-0.126

Sequence	PBM E-score
ATACGAGC	0.0241
AGAACATA	0.242
ACTTCAGG	0.12
ATCATACG	0.157
AAGGAACG	-0.0932
ATACTGAA	0.0375
AACACCTG	-0.0429
AGCCGCCG	0.0448
CACATCGA	-0.0466
AAGAACAT	0.239
CAAAGTTG	-0.0132
GTCCGAGA	0.428
ATATTCGC	0.0593
AAGGGGAT	-0.136
TCCCCGCA	-0.0536
CGGCTAGC	-0.112
AGTCTTGG	-0.0295
CATTGGCA	-0.116
GGCCAAAC	0.0247
AACTCACT	-0.151
CAGATAGG	-0.0738
AGCGATAC	-0.184
TCATGCAA	0.0478
CTGAATAC	0.0418
AAGTCGAT	-0.00629

Sequence	PBM E-score
AAATCTCC	0.148
CAGAAAAG	-0.00307
CAATTCGG	0.202
CTGGAGAA	-0.147
ACTCATCT	0.0709
GATACCCC	-0.0838
AATCCAGC	-0.00361
CCTATGTC	-0.0366
CCACACTA	0.154
AGCCCCAA	-0.358
AACTGTTC	0.223
GAAATCGC	0.1
ACGCGCAG	-0.294
CCCCCTAG	-0.276
CCTCAAGC	-0.158
GTGGACTA	-0.0903
GGCAGGCA	-0.0593
CAAATAAA	0.22
ACGCGCCT	-0.0499
